Patent US20230287125A1 (LEPU BIOPHARMA, published 2023)
Values belong to the binder of their own block, whether it stands above or below them.

What was measured:
[1] = biological target: human TGF-β protein (human, UniProt P01137 partial chain, The mature TGF-β1 is a disulfide-linked homodimer; one protomer is given.); assay: cell-based or functional assay
[2] = biological target: T1, human TGF-β1 protein (human, UniProt P01137 partial chain); assay: ELISA, molecule titrated on coated human TGF-β1, OD450 nm; left panel
T1 construct: also called human TGF-β1 protein (Acro, TG1-H4212); recombinant human TGF-β1
Source text: (§1) After washing, the plates were developed with TMB substrate and analyzed by spectrophotometer at OD 450 nm.

[3] = biological target: T1, human TGF-β1 protein; assay: ELISA, molecule titrated on coated human TGF-β1, anti-human IgG Fc-HRP, OD 450nm
[4] = biological target: T1, human TGF-β1 protein; assay: ELISA, molecule titrated on coated human TGF-β1, OD 450nm; right panel
Source text: as §1

T1 sequence (P01137 279-390 limits assumed): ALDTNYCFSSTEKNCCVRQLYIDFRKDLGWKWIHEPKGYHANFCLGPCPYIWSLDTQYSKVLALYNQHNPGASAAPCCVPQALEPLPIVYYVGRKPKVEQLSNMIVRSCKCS

B2: LP008-02-1 (other)
heavy: EVQLVQSGAEVKKPGASVKVSCKASGYTFTDFWVSWVRQAPGQGLEWMGEIYPNSGVSRYNEKFKGRVTMTVDKSISTAYMELSRLRSDDTAVYYCTKYFGYTYWFGYWGQGTLVTVSSASTKGPSVFPLAPSSKSTSGGTAALGCLVKDYFPEPVTVSWNSGALTSGVHTFPAVLQSSGLYSLSSVVTVPSSSLGTQTYICNVNHKPSNTKVDKRV[not shown - human IgG1 Fc]GGGGSGGGGSGGGGSGGGGSGIPPHVQKSVNNDMIVTDNNGAVKFPQLCKFCDVRFSTCDNQKSCMSNCSITSICEKPQEVCVAVWRKNDENITLETVCHDPKLPYHDFILEDAASPKCIMKEKKKPGETFFMCSCSSDECNDNIIFSEEYNTSNPD
light: DIQMTQSPSSLSASVGDRVTITCRASKSVSTYMHWYQQKPGKQPKLLIYSASHLESGVPSRFSGSGSGTDFTLTISSLQPEDFATYYCQQSNELPVTFGGGTKVEIKRTVAAPSVFIFPPSDEQLKSGTASVVCLLNNFYPREAKVQWKVDNALQSGNSQESVTEQDSKDSTYSLSSTLTLSKADYEKHKVYACEVTHQGLSSPVTKSFNRGEC
notes: modified LP008-02; also called Molecule 1
EC50 [2]: 0.926 nM | EC50 [4]: 1.21 nM | EC50 [3]: 0.245 nM

B4: LP008-02-7 (other)
heavy: EVQLVQSGAEVKKPGASVKVSCKASGYTFTDFWVSWVRQAPGQGLEWMGEIYPNSGVSRYNEKFKGRVTMTVDKSISTAYMELSRLRSDDTAVYYCTKYFGYTYWFGYWGQGTLVTVSSASTKGPSVFPLAPSSKSTSGGTAALGCLVKDYFPEPVTVSWNSGALTSGVHTFPAVLQSSGLYSLSSVVTVPSSSLGTQTYICNVNHKPSNTKVDKRV[not shown - human IgG1 Fc]GGGGSGGGGSGGGGSHYPQLCKFCDVRFSTCDNQKSCMSNCSITSICEKPQEVCVAVWRKNDENITLETVCHDPKLPYHDFILEDAASPKCIMKEKKKPGETFFMCSCSSDECNDNIIFSEEYNTSNPD
light: B2 light
notes: modified LP008-02; also called Molecule 7
EC50 [4]: 1.06 nM | EC50 [3]: 0.267 nM

Further binders by falling EC50 [3], results first:

EC50 [4]: 0.944 nM | EC50 [3]: 0.328 nM
B3: LP008-02-6 (other)
heavy: EVQLVQSGAEVKKPGASVKVSCKASGYTFTDFWVSWVRQAPGQGLEWMGEIYPNSGVSRYNEKFKGRVTMTVDKSISTAYMELSRLRSDDTAVYYCTKYFGYTYWFGYWGQGTLVTVSSASTKGPSVFPLAPSSKSTSGGTAALGCLVKDYFPEPVTVSWNSGALTSGVHTFPAVLQSSGLYSLSSVVTVPSSSLGTQTYICNVNHKPSNTKVDKRV[not shown - human IgG1 Fc]SGGGGSGGGGSGGGGSGGGGSGGGGSHYPQLCKFCDVRFSTCDNQKSCMSNCSITSICEKPQEVCVAVWRKNDENITLETVCHDPKLPYHDFILEDAASPKCIMKEKKKPGETFFMCSCSSDECNDNIIFSEEYNTSNPD
light: B2 light
notes: modified LP008-02; also called Molecule 6

IC50, TGF-β SBE luciferase reporter assay in 293 cells [1]: 0.164 nM | EC50 [2]: 0.768 nM | EC50 [3]: 0.28 nM
B1: LP008-02-3 (other)
heavy: EVQLVQSGAEVKKPGASVKVSCKASGYTFTDFWVSWVRQAPGQGLEWMGEIYPNSGVSRYNEKFKGRVTMTVDKSISTAYMELSRLRSDDTAVYYCTKYFGYTYWFGYWGQGTLVTVSSASTKGPSVFPLAPSSKSTSGGTAALGCLVKDYFPEPVTVSWNSGALTSGVHTFPAVLQSSGLYSLSSVVTVPSSSLGTQTYICNVNHKPSNTKVDKRV[not shown - human IgG1 Fc]GGGGSGGGGSGGGGSGGGGSGGGGSTAGHTQTSTGGGAITTGTSGAGHGPQLCKFCDVRFSTCDNQKSCMSNCSITSICEKPQEVCVAVWRKNDENITLETVCHDPKLPYHDFILEDAASPKCIMKEKKKPGETFFMCSCSSDECNDNIIFSEEYNTSNPD
light: B2 light
notes: modified LP008-02; also called Molecule 3
